We go through 16 compounds from the supplement of paper PMC8285479.

Counter-ions that a name gives are not always drawn. ± gives the standard deviation of the averaged measurements. Whole data set: some 1,900 compounds, median “normalised cell viability (NPI; 0 = phenylarsine oxide control, 1 = DMSO control)” near 1, cut for the lowest 2% near 0.039. This is one part of the list.

This assay deals with NCI-H1944. The assay can be described thus: normalised cell viability (NPI; 0 = phenylarsine oxide control, 1 = DMSO control) (fraction of DMSO control); NCI-H1944 is a non-small cell lung cancer line; higher = more viable cells (less compound toxicity). The note with it: 6 days.
[1] abbreviates: glucocorticoid arm: hydrocortisone 2.75 uM co-treatment, compound 1 µM.
Where [2] appears, read: glucocorticoid arm: hydrocortisone 2.75 uM co-treatment, compound 5 µM.
Setting [3] is: glucocorticoid arm: hydrocortisone 2.75 uM pre-treated 2 days and continued, compound 1 µM.
[4] abbreviates: glucocorticoid arm: hydrocortisone 2.75 uM pre-treated 2 days and continued, compound 5 µM.
Setting [5] is: glucocorticoid arm: vehicle, compound 1 µM.
Setting [6] is: glucocorticoid arm: vehicle, compound 5 µM.
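Further: CTB read-out in 384-well plates, mean of triplicate wells, normalised per plate against 1 µM phenylarsine oxide and 0.1% DMSO, compounds added 24 h after seeding.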

As for `C[C@@]1(C(=O)Nc2ccc(F)nc2)CCCN1c1nc(Nc2cc(C3CC3)n[nH]2)c2cccn2n1`, the normalised cell viability under setting [1] turned out to be 0.446 ± 0.025; the normalised cell viability under setting [2] came to 0.455 ± 0.016; the normalised cell viability under setting [3] is 0.537 ± 0.034; the normalised cell viability under setting [4] is 0.497 ± 0.093; the normalised cell viability under setting [5] worked out at 0.595 ± 0.031; the normalised cell viability under setting [6] is 0.322 ± 0.051.
As for `N#Cc1ccc(C(c2ccc(C#N)cc2)n2cncn2)cc1` [Letrozole], the normalised cell viability reads like this: under setting [1], 1.02 ± 0.015; under setting [2], 1 ± 0.016; under setting [3], 1.017 ± 0.0058; under setting [4], 0.967 ± 0.016; under setting [5], 1; under setting [6], 1.017 ± 0.0058.
As for `O=C(Nc1cccc(Cl)c1)c1ccccn1`, the normalised cell viability under setting [1] came to 0.972 ± 0.011; the normalised cell viability under setting [2] was determined as 0.969 ± 0.012; the normalised cell viability under setting [3] worked out at 0.9897 ± 0.006; the normalised cell viability under setting [4] stood at 0.993 ± 0.017; the normalised cell viability under setting [5] turned out to be 0.971 ± 0.012; the normalised cell viability under setting [6] was 0.998 ± 0.011.
As to `NNCCc1ccccc1` [Phenelzine sulfate], the normalised cell viability reads like this: under setting [1], 0.998 ± 0.01; under setting [2], 1.03; under setting [3], 1.02 ± 0.017; under setting [4], 1.02 ± 0.015; under setting [5], 0.9807 ± 0.0065; under setting [6], 0.9783 ± 0.0011.
With `NC1(C(=O)O)CCCCC1` [1-Amino-1-cyclohexanecarboxylic acid hydrochloride], the normalised cell viability is 0.998 ± 0.011 under setting [1]; 0.9907 ± 0.0081 under setting [2]; 0.9927 ± 0.0049 under setting [3]; 0.991 ± 0.013 under setting [4]; 0.9913 ± 0.009 under setting [5]; 0.999 ± 0.011 under setting [6].
`CC(=O)Nc1ccc(C(=O)Nc2ccccc2N)cc1` [CI994 (Tacedinaline)]: the normalised cell viability is 0.9813 ± 0.0093 under setting [1]; 1.03 ± 0.029 under setting [2]; 0.999 ± 0.012 under setting [3]; 1.02 ± 0.02 under setting [4]; 0.9707 ± 0.0072 under setting [5]; 0.9157 ± 0.008 under setting [6].
`CC(=O)Nc1ccc(C(=O)Nc2ccccc2N)cc1`: the normalised cell viability turned out to be 1.02 ± 0.011 under setting [1]; 1.063 ± 0.0058 under setting [2]; 1.033 ± 0.0058 under setting [3]; 1.06 ± 0.011 under setting [4]; 0.9833 ± 0.0057 under setting [5]; 0.906 ± 0.052 under setting [6].
In the case of `O=C(O)[C@]1(Cc2cccc(Nc3nccs3)n2)CC[C@@H](Oc2cccc(Cl)c2F)CC1`, the normalised cell viability worked out at 0.995 ± 0.013 under setting [1]; 1 ± 0.071 under setting [2]; 0.997 ± 0.013 under setting [3]; 1 ± 0.038 under setting [4]; 0.895 ± 0.11 under setting [5]; 0.577 ± 0.27 under setting [6].
As to `C#Cc1cccc(Nc2ncnc3cc(OC)c(OCCCCCCC(=O)NO)cc23)c1`, the normalised cell viability amounted to 0.942 ± 0.019 under setting [1]; 0.809 ± 0.15 under setting [2]; 0.962 ± 0.021 under setting [3]; 0.959 ± 0.041 under setting [4]; 0.921 ± 0.023 under setting [5]; 0.594 ± 0.43 under setting [6].
Turning to `CC(=O)S[C@@H]1CC2=CC(=O)CC[C@]2(C)[C@H]2CC[C@@]3(C)[C@@H](CC[C@@]34CCC(=O)O4)[C@H]12` [Spironolactone], the normalised cell viability is, setting by setting: under setting [1], 0.9813 ± 0.0061; under setting [2], 0.955 ± 0.026; under setting [3], 0.867 ± 0.22; under setting [4], 0.987 ± 0.022; under setting [5], 0.9787 ± 0.0047; under setting [6], 0.9853 ± 0.0035.
Regarding `CC(C)(C)NCC(O)COc1cccc2[nH]c(=O)[nH]c12` (racemic), the normalised cell viability turned out to be 0.9973 ± 0.0023 under setting [1]; 0.974 ± 0.014 under setting [2]; 0.992 ± 0.015 under setting [3]; 0.988 ± 0.0076 under setting [4]; 0.9853 ± 0.0067 under setting [5]; 0.985 ± 0.0053 under setting [6].
As to `N#Cc1c(-c2ccccc2)no[n+]1[O-]` [4-Phenyl-3-furoxancarbonitrile], the normalised cell viability was found to be 1.01 ± 0.022 under setting [1]; 1.06 ± 0.038 under setting [2]; 1.02 ± 0.021 under setting [3]; 0.934 ± 0.14 under setting [4]; 1.01 under setting [5]; 0.983 ± 0.03 under setting [6].
As for `CCCNC[C@H](O)COc1ccccc1C(=O)CCc1ccccc1` [(S)-(-)-propafenone hydrochloride], the normalised cell viability under setting [1] was 0.99967 ± 0.00058; the normalised cell viability under setting [2] was 0.9747 ± 0.0047; the normalised cell viability under setting [3] is 1.02 ± 0.026; the normalised cell viability under setting [4] came to 1.02 ± 0.015; the normalised cell viability under setting [5] came to 0.9967 ± 0.0058; the normalised cell viability under setting [6] turned out to be 0.995 ± 0.005.
For `N=C(N)NC(=N)NCCc1ccccc1` [Phenformin hydrochloride], the normalised cell viability runs as follows: under setting [1], 0.979 ± 0.011; under setting [2], 0.9773 ± 0.0032; under setting [3], 1.01 ± 0.012; under setting [4], 1 ± 0.034; under setting [5], 1.001 ± 0.009; under setting [6], 0.983 ± 0.015.
In the case of `CN1CCC(=C2c3ccccc3C=Cc3ccccc32)CC1` [Cyproheptadine hydrochloride], the normalised cell viability was 0.9953 ± 0.0045 under setting [1]; 0.968 ± 0.012 under setting [2]; 0.9937 ± 0.0021 under setting [3]; 0.998 ± 0.018 under setting [4]; 0.9967 ± 0.0058 under setting [5]; 0.987 ± 0.0092 under setting [6].
Consider `CN1CCC(=C2c3ccccc3C=Cc3ccccc32)CC1` [Cyproheptadine HCl], for which the normalised cell viability is 1.01 under setting [1]; 1.03 ± 0.011 under setting [2]; 1 ± 0.025 under setting [3]; 1.017 ± 0.0058 under setting [4]; 1.002 ± 0.0072 under setting [5]; 1.003 ± 0.0061 under setting [6].
